Experimental data taken from PubChem BioAssay (Tox21).
The shares of active, inactive and inconclusive entries below differ from those in the screen. For part of these data: Potencies of inconclusive entries are doubtful fits and often do not repeat. Active and inactive are the calls of the source. Unless noted, calls follow the shape of the dose curve; as a rule, active = well fitted curve in the direction sought with a large enough effect in the repeat runs; inconclusive = weak or mixed curves; inactive = no such curve, though single readings can be large; an effect the other way counts as inactive or inconclusive.

What was measured:
[1] = qHTS assay for identifying genotoxic compounds that show differential cytotoxicity against isogenic chicken DT40 cell lines with known DNA damage response pathways - Rev3 mutant cell line (AID 743014); details: chicken DT40 Rev3-/- viability, CellTiter-Glo, 40 h; activity, negative = cytotoxicity: at 68.4 µM (top of the series) unless noted; also: potency is read from the fitted curve at half-maximal effect; nearly all actives have a fitted effect of over 55% in size
[2] = biological target: Estrogen receptor (Homo sapiens) (UniProt P03372); assay: qHTS assay to identify small molecule agonists of the estrogen receptor alpha (ER-alpha) signaling pathway using the BG1 cell line (AID 743079); details: BG1Luc4E2 cells, ERE-luciferase agonist, 22 h; activation: at 70.3 µM (top of the series) unless noted; also: nearly all actives have a fitted effect of over 20% in size; also: potency is read from the fitted curve at half-maximal effect
[3] = biological target: Peroxisome proliferator-activated receptor gamma (Homo sapiens) (UniProt P37231); assay: qHTS assay to identify small molecule antagonists of the peroxisome proliferator-activated receptor gamma (PPARg) signaling pathway (AID 743191; calls by dose curve; also: % is scaled to controls: 0 for no effect and ±100 for the full control effect; nearly all actives have a fitted effect of over 30% in size); details: HEK293H PPARg-UAS-bla, beta-lactamase ratio, antagonist, 17 h; ratio activity, negative = inhibition: at 62.6 µM (top of the series) unless noted
Summary of the method: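 GeneBLAzer PPARg UAS-bla HEK293H cells, 5 h post-plating, exposed to compounds 17 h at 37C. LiveBLAzer B/G FRET substrate added for 1 h at room temperature; beta-lactamase reporter read by fluorescence intensity.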

[4] = qHTS assay for small molecule agonists of the antioxidant response element (ARE) signaling pathway (AID 743202; active = well fitted activation curve with a large enough effect in the signal ratio in the repeat runs, not every such curve was filed as active; inconclusive = weak or mixed curves, or effect the other way; inactive = no such curve, though single readings can be large or run the other way; the % refers to the signal ratio; also: potency is read from the fitted curve at half-maximal effect); details: HepG2 ARE-bla reporter, beta-lactamase FRET, 16 h; activation: at 73.3 µM (top of the series) unless noted
Summary of the method: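 Agonist mode reporter screen: HepG2 cells with ARE-controlled beta-lactamase are incubated with test compounds for 16 h at 37 C, and beta-lactamase activity is measured as fluorescence of cleaved B/G FRET substrate.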

[5] = qHTS assay to identify small molecule agonists of the retinoic acid receptor (RAR) signaling pathway (AID 1159553); details: C3RL4 RARE luciferase reporter, agonist, 6 h; activation: at 73.3 µM (top of the series) unless noted; also: potency is read from the fitted curve at half-maximal effect
Summary of the method: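 C3RL4 cells carrying a RARE luciferase reporter were plated overnight at 37 C, then exposed to compounds in DMSO for 6 hr at 37 C and 5% CO2. Luminescence was read 30 min after luciferase reagent addition at room temperature.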

[6] = qHTS assay to identify small molecule antagonists of the sonic hedgehog signaling (Shh) pathway (AID 1259369; calls by dose curve; also: % is scaled to controls: 0 for no effect and ±100 for the full control effect; nearly all actives have a fitted effect of over 45% in size)
Summary of the method: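 NIH/3T3-derived 3T3Gli1-Luc cells with stably integrated Gli1-Luc reporter were preincubated 4hr at 37 C, then given compounds in DMSO plus Shh conditioned medium and incubated 24hr. Firefly luciferase luminescence read after 30min reagent at room temperature.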

[7] = biological target: Estrogen receptor beta (Homo sapiens) (UniProt Q92731); assay: qHTS assay to identify small molecule antagonists of the estrogen receptor beta (ER-beta) signaling pathway (AID 1259378; active = well fitted inhibition curve with a large enough effect in the signal ratio in the repeat runs, not every such curve was filed as active; inconclusive = weak or mixed curves, or effect the other way; inactive = no such curve, though single readings can be large or run the other way; the % refers to the signal ratio; also: % is scaled to controls: 0 for no effect and ±100 for the full control effect); details: ER-beta-UAS-bla HEK293T, beta-lactamase FRET ratio, 16 h; activity, negative = inhibition: at 92.4 µM (top of the series) unless noted
Summary of the method: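 ER-beta-UAS-bla HEK293T cells in 2% charcoal-stripped FBS medium treated with compound plus 1nM final 17-beta-estradiol for 16 hr at 37C. Beta-lactamase reporter read by FRET substrate fluorescence after 2 hours at room temperature.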

[8] = biological target: Cytochrome P450 2D6 (Homo sapiens) (UniProt P10635); assay: Cytochrome P450 Family 2 Subfamily D Member 6 (CYP2D6) small molecule antagonists: luciferase reporter qHTS assay (AID 1671196); also: potency is read from the fitted curve at half-maximal effect; nearly all actives have a fitted effect of over 50% in size
Summary of the method: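 CYP2D6 enzyme–substrate mix was held with compound for 10 min at room temperature, then NADPH regeneration solution was added and the reaction ran 1 h at room temperature. Luciferin product was detected by luminescence after 20 min with detection reagent.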

[9] = biological target: Cytochrome P450 2C19 (Homo sapiens) (UniProt P33261); assay: Cytochrome P450 Family 2 Subfamily C Member 19 (CYP2C19) small molecule antagonists: luciferase reporter qHTS assay (AID 1671197); also: potency is read from the fitted curve at half-maximal effect; nearly all actives have a fitted effect of over 65% in size
Summary of the method: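 Quantitative high-throughput screen of the Tox21 library using CYP2C19 with proluciferin substrate. Reaction: NADPH regeneration, 37C, 1 h, after 10 min compound preincubation at room temperature. Readout: luminescence.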

[10] = biological target: Cytochrome P450 2C9 (Homo sapiens) (UniProt P11712); assay: Cytochrome P450 Family 2 Subfamily C Member 9 (CYP2C9) small molecule antagonists: luciferase reporter qHTS assay (AID 1671198); also: potency is read from the fitted curve at half-maximal effect; nearly all actives have a fitted effect of over 50% in size
Summary of the method: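 P450-Glo proluciferin substrate with CYP2C9 enzyme; 10 min RT preincubation, then NADPH regeneration 1 h at 37C; luciferin detection reagent 20 min RT, luminescence in relative luminescence units.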

[11] = biological target: Cytochrome P450 1A2 (Homo sapiens) (UniProt P05177); assay: Cytochrome P450 Family 1 Subfamily A Member 2 (CYP1A2) small molecule antagonists: luciferase reporter qHTS assay (AID 1671199); also: nearly all actives have a fitted effect of over 50% in size; also: potency is read from the fitted curve at half-maximal effect
Summary of the method: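 Human CYP1A2 activity measured with a P450-Glo proluciferin substrate; compounds in DMSO preincubated 10 min at room temperature with enzyme-substrate mix, then NADPH regeneration system added for 1 h. Luciferin detection reagent, 20 min, luminescence read.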

[12] = qHTS assay for small molecule agonists of the p53 signaling pathway (AID 651631; calls by dose curve; also: % is scaled to controls: 0 for no effect and ±100 for the full control effect; nearly all actives have a fitted effect of over 15% in size); details: HCT-116 p53RE-bla reporter, beta-lactamase FRET ratio, 16 h; activation: at 73.3 µM (top of the series) unless noted
Summary of the method: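 Beta-lactamase reporter activity under p53 response elements was quantified in HCT-116 cells by FRET fluorescence, following 16 h incubation with test compounds at 37 °C and 2 h substrate development at room temperature.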

[13] = qHTS assay for small molecule disruptors of the mitochondrial membrane potential (AID 720635); details: HepG2 mitochondrial membrane potential, Mito-MPS dye ratio; ratio activity, negative = MMP loss: at 83.2 µM (top of the series) unless noted; also: potency is read from the fitted curve at half-maximal effect; as to ratio activity, negative = MMP loss: % is scaled to controls: 0 for no effect and ±100 for the full control effect
Summary of the method: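 HepG2 cells exposed to compound 1 hr at 37C, then Mito-MPS dye 30 min. Ratio read of aggregate (540/590 nm) versus monomer (490/535 nm) fluorescence.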

[14] = biological target: Glucocorticoid receptor (Homo sapiens) (UniProt P04150); assay: qHTS assay to identify small molecule antagonists of the glucocorticoid receptor (GR) signaling pathway (AID 720692; active = well fitted inhibition curve with a large enough effect in the signal ratio in the repeat runs, not every such curve was filed as active; inconclusive = weak or mixed curves, or effect the other way; inactive = no such curve, though single readings can be large or run the other way; the % refers to the signal ratio; also: potency is read from the fitted curve at half-maximal effect; as to activity change, negative = inhibition: % is scaled to controls: 0 for no effect and ±100 for the full control effect); details: GR-bla HeLa, beta-lactamase FRET ratio, dexamethasone-stimulated, 18 h; activity change, negative = inhibition: at 58.5 µM (top of the series) unless noted
Summary of the method: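 GR-bla HeLa cells (beta-lactamase reporter under glucocorticoid response element) were pre-plated 4 h at 37 C, treated with compounds plus 5 nM dexamethasone (final) for 18 h, then read by LiveBLAzer B/G FRET fluorescence after 2 h.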

[15] = biological target: Vitamin D3 receptor (Homo sapiens) (UniProt P11473); assay: qHTS assay to identify small molecule antagonists of the vitamin D receptor (VDR) signaling pathway (AID 743223; active = well fitted inhibition curve with a large enough effect in the signal ratio in the repeat runs, not every such curve was filed as active; inconclusive = weak or mixed curves, or effect the other way; inactive = no such curve, though single readings can be large or run the other way; the % refers to the signal ratio; also: % is scaled to controls: 0 for no effect and ±100 for the full control effect); details: VDR-UAS-bla HEK293T, beta-lactamase FRET ratio, 16 h; activity change, negative = inhibition: at 61 µM (top of the series) unless noted
Summary of the method: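 Inhibition of agonist-driven VDR signalling is scored in VDR-bla cells: 3 nM final 1alpha,25-dihydroxyvitamin D3 plus compound, 16 h at 37C, then beta-lactamase detection by FRET substrate fluorescence after 2 h.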

[16] = qHTS assay for identifying genotoxic compounds that show differential cytotoxicity against isogenic chicken DT40 cell lines with known DNA damage response pathways - wild type cell line (AID 743012); details: DT40 wild type chicken cells viability, CellTiter-Glo, 40 h; activity change, negative = cytotoxicity: at 68.4 µM (top of the series) unless noted; also: % is scaled to controls: 0 for no effect and ±100 for the full control effect; nearly all actives have a fitted effect of over 60% in size
Summary of the method: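 Parental DNA repair-proficient DT40 cells, 300 per well, were pre-incubated ~0.5 h at 37 C/5% CO2, pin-dosed with compounds in DMSO, then incubated 40 h. Viability was read as CellTiter-Glo luminescence after 30 min at room temperature.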

[17] = biological target: Progesterone receptor (Homo sapiens) (UniProt P06401); assay: qHTS assay to identify small molecule antagonists of the progesterone receptor (PR) signaling pathway (AID 1346795; active = well fitted inhibition curve with a large enough effect in the signal ratio in the repeat runs, not every such curve was filed as active; inconclusive = weak or mixed curves; the % refers to the signal ratio; also: potency is read from the fitted curve at half-maximal effect); details: PR-UAS-bla HEK293T, beta-lactamase FRET ratio, 16 h; activity change, negative = inhibition: at 92.4 µM (top of the series) unless noted
Summary of the method: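 Stimulus R5020 at 1 nM final; cells HEK293T PR-UAS-bla; medium with 2% charcoal-stripped FBS; compound exposure 16 hr at 37C, 5% CO2; detection by FRET beta-lactamase substrate, 2 hr, room temperature.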

[18] = qHTS assay to identify small molecule antagonists of the thyroid receptor (TR) signaling pathway - cell viability counter screen (AID 743064); details: GH3.TRE-Luc viability, CellTiter-Fluor, 24 h; activity change, negative = cytotoxic: at 70.3 µM (top of the series) unless noted; also: nearly all actives have a fitted effect of over 50% in size; also: potency is read from the fitted curve at half-maximal effect
Summary of the method: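 CellTiter-Fluor readout, 30 min at 37 °C/5% CO2, following 23.5 h incubation of GH3.TRE-Luc cells with test compound and 1 nM T3 (final).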

[19] = qHTS assay to identify small molecule agonists of the progesterone receptor (PR) signaling pathway - cell viability counter screen (AID 1346799; calls by dose curve; also: potency is read from the fitted curve at half-maximal effect; nearly all actives have a fitted effect of over 45% in size)
Summary of the method: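 Multiplexed viability read: CellTiter-Glo luminescence, 30 min RT, following LiveBLAzer FRET measurement on PR-UAS-bla HEK293T cells exposed to compounds 16 hr.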
Tags tell the direction and shape of the fitted curve or compound fluorescence and quenching.

Sequence of UniProt P05177 (P05177 whole entry, looked up): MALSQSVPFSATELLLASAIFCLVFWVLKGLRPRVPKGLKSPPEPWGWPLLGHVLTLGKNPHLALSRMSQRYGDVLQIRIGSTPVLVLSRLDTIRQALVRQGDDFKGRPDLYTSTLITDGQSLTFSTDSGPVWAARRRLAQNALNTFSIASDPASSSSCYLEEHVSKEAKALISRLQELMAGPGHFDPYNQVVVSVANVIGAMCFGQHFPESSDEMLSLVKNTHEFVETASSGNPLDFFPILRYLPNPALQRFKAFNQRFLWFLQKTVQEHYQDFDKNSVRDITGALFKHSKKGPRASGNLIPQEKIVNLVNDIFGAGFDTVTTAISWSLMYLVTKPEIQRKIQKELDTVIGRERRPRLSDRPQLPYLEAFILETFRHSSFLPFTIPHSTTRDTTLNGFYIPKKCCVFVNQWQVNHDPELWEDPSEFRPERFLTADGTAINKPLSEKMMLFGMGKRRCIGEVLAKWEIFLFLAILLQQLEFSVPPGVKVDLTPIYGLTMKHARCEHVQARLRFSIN
Sequence of UniProt P04150 (P04150 whole entry, looked up): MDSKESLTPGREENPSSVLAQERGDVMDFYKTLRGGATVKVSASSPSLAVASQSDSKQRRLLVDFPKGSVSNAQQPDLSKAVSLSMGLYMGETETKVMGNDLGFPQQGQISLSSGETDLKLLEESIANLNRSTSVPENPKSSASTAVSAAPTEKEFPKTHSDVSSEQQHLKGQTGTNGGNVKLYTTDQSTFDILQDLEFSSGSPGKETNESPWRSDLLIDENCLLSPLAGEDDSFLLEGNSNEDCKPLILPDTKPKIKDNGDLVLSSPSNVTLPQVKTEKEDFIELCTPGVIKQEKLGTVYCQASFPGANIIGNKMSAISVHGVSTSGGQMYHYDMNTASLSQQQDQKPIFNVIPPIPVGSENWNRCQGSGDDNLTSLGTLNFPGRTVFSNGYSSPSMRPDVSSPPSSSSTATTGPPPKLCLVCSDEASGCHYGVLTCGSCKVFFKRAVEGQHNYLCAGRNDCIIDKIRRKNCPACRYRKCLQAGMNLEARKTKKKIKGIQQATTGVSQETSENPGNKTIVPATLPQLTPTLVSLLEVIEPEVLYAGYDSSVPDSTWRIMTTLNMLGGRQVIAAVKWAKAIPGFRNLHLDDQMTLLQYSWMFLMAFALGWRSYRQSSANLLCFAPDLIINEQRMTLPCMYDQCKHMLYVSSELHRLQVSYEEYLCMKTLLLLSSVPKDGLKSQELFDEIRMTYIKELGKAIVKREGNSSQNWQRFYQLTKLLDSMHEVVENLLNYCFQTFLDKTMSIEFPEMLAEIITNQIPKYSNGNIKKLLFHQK
Sequence of UniProt P03372 (P03372 whole entry, looked up): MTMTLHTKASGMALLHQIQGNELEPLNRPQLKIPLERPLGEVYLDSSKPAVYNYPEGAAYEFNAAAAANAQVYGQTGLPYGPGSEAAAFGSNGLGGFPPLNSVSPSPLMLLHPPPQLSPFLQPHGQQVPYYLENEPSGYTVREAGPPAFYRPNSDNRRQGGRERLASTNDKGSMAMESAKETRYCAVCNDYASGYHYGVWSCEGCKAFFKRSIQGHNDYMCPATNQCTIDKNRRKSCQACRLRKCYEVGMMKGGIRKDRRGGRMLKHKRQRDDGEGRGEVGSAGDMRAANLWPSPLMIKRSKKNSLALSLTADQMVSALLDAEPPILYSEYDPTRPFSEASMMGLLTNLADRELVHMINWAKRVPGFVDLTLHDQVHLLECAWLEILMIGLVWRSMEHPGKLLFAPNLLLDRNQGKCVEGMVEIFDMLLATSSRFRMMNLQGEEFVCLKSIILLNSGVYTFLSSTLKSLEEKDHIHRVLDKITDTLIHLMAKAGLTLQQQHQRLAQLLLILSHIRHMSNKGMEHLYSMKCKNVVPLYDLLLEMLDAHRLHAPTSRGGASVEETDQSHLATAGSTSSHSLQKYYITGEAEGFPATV
Sequence of UniProt P33261 (P33261 whole entry, looked up): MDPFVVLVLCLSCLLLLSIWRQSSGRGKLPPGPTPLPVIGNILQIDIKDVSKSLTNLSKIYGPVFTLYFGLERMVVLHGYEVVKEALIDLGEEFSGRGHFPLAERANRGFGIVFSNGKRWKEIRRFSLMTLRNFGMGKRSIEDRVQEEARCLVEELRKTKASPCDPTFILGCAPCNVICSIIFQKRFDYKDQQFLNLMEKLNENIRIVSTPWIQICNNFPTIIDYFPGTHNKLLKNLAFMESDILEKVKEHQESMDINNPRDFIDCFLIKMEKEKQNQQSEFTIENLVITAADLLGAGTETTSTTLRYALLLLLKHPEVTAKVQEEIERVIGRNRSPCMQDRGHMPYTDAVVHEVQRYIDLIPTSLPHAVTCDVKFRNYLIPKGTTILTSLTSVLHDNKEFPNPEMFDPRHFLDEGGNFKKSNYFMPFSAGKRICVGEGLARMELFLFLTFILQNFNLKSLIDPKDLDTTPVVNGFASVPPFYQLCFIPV
Sequence of UniProt P10635 (P10635 whole entry, looked up): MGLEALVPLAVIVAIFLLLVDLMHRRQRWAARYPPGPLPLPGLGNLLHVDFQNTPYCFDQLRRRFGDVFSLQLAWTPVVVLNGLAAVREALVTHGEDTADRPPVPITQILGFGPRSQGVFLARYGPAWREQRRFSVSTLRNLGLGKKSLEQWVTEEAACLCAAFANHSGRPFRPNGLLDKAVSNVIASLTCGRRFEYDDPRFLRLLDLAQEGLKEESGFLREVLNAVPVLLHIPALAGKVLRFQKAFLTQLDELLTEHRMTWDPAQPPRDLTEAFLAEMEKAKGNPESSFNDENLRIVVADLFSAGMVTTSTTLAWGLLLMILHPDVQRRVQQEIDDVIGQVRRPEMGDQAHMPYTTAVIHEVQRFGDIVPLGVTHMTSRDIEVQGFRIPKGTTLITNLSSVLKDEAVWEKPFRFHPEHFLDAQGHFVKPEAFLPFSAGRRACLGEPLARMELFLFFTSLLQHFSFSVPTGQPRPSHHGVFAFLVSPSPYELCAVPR
Sequence of UniProt P06401 (P06401 whole entry, looked up): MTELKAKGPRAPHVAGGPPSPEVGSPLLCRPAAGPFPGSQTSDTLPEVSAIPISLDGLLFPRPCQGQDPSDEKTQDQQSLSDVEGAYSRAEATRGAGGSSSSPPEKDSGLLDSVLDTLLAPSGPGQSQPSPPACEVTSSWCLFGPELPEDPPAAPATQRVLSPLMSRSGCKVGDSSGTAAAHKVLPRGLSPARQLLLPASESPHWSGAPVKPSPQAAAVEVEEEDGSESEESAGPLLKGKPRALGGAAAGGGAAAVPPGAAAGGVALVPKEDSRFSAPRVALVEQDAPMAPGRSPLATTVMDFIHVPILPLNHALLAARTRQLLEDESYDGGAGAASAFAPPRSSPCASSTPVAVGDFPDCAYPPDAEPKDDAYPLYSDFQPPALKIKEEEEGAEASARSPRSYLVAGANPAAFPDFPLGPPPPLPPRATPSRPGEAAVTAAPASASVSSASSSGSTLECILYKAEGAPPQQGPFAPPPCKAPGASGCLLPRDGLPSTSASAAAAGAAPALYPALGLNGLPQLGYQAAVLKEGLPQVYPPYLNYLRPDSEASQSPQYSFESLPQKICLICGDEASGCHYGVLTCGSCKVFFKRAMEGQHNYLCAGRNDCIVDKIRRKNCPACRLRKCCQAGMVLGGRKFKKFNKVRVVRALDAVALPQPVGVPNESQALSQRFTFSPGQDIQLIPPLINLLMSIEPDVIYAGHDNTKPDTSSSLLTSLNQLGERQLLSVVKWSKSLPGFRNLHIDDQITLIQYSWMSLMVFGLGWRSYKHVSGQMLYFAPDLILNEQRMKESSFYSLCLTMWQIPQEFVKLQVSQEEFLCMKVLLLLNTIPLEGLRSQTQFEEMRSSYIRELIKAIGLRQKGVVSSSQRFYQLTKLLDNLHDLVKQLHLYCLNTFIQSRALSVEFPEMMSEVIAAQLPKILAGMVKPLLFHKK
Sequence of UniProt Q92731 (Q92731 whole entry, looked up): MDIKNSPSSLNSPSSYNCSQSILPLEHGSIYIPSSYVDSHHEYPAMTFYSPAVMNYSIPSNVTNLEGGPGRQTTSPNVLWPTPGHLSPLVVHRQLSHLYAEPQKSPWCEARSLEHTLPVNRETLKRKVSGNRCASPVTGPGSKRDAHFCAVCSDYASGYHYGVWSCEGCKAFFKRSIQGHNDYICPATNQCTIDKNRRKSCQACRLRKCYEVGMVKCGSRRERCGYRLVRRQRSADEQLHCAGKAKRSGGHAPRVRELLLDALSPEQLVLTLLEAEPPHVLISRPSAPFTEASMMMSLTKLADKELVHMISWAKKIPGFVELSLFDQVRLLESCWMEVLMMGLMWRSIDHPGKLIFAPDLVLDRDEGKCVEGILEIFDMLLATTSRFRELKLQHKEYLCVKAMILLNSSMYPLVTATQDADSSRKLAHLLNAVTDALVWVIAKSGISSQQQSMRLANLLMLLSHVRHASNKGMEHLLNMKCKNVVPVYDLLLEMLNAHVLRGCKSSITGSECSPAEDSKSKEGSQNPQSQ
Sequence of UniProt P11473 (P11473 whole entry, looked up): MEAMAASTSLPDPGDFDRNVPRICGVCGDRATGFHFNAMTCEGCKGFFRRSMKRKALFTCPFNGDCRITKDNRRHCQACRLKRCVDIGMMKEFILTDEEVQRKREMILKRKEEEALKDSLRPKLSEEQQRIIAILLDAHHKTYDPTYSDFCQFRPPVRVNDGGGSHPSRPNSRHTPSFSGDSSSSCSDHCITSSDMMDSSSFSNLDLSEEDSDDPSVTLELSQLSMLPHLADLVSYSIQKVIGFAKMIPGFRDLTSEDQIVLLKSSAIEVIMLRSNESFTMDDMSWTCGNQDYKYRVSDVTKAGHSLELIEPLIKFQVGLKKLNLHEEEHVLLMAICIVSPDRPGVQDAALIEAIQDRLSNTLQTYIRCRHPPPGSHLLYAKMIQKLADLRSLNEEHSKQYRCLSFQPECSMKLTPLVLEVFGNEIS

CCOc1ccc2nc(N)sc2c1
active: Potency [2] 4.29 µM | Potency [4] 48.2 µM | Potency [5] 3.83 µM | Potency [8] 39.6 µM | Potency [9] 22.3 µM | Potency [10] 31.5 µM | Potency [11] 17.7 µM
inactive: Potency [6]
inconclusive: Potency [1] 30.4 µM [cytotoxic, partial curve] | ratio activity, negative = inhibition [3] -7.83% | activity, negative = inhibition [7] -2.77%

O=C(O)c1cc(Cl)cc([N+](=O)[O-])c1Cl
inactive: Potency [12] | Potency [14] | Potency [3] | Potency [15]
inconclusive: Potency [13] 77 µM [rising, partial curve, poor fit] | Potency [4] 27.3 µM [rising, full curve] | Potency [5] 0.0017 µM [activator, full curve, poor fit] | Potency [8] 50.2 µM [inhibitor, partial curve, poor fit]
active: Potency [10] 71 µM

CCCCCCC1CCC(=O)O1 (stereo unspecified)
inactive: Potency [7] | Potency [17]
inconclusive: ratio activity, negative = MMP loss [13] 14.2% [at 95.3 µM] | activity change, negative = cytotoxicity [16] 30.7% [at 95 µM] | ratio activity, negative = inhibition [3] 0.373% [at 81.1 µM] | activity change, negative = inhibition [15] -0.336% [at 78.8 µM] | Potency [5] 0.0018 µM [activator, full curve, poor fit] | Potency [9] 81.6 µM [inhibitor, single point] | Potency [10] 45.9 µM [inhibitor, partial curve]

CC(C)CC(O)Cc1ccccc1 (stereo unspecified)
inactive: Potency [18] | Potency [3] | Potency [4] | Potency [5] | Potency [7]
inconclusive: Potency [14] 49 µM [activator, partial curve, poor fit] | Potency [2] 54.5 µM [activator, partial curve] | activity change, negative = inhibition [15] -10.8% | Potency [10] 63.3 µM [inhibitor, partial curve, poor fit] | Potency [11] 35.6 µM [inhibitor, partial curve]

CC(C)(C)C(=O)NCCCC(=O)O
inconclusive: ratio activity, negative = MMP loss [13] 12.7% | ratio activity, negative = inhibition [3] 21.3%
inactive: Potency [4] | Potency [15] | Potency [5] | Potency [11]

CC1OC1C1CCC2(C)OC2C1 (stereo unspecified)
inconclusive: Potency [13] 13.7 µM [activator, partial curve, poor fit] | Potency [18] 1.37 µM [rising, single point] | activation [5] 2.08% [phenotype inactive] | Potency [17] 0.864 µM [falling, partial curve] | Potency [9] 89.4 µM [inhibitor, single point]

CC(C)(C)OC(=O)c1cccc(N)c1
inconclusive: Potency [5] 62.8 µM [activator, single point] | activity change, negative = inhibition [17] -20.5% | Potency [8] 72.9 µM [inhibitor, partial curve, poor fit]
active: Potency [2] 31.4 µM | Potency [11] 7.29 µM
inactive: Potency [14] | Potency [4] | Potency [15]

CCCCN1C=CN(C)C1
inconclusive: ratio activity, negative = MMP loss [13] 26.3% [at 39.1 µM] | Potency [19] 1.55 µM [cytotoxic, full curve, poor fit] | Potency [9] 20.2 µM [inhibitor, single point] | Potency [10] 18 µM [inhibitor, partial curve, poor fit] | Potency [11] 18 µM [inhibitor, partial curve, poor fit]
inactive: Potency [2] | Potency [3] | Potency [5]
